Experimental data taken from PubChem BioAssay AID504832 (National Center for Advancing Translational Sciences (NCATS), 2011).
In all, about 310,000 compounds went through this assay and about 18,000 (5.8%) were called active. The shares of active, inactive and inconclusive entries below differ from those in the screen. The call rests on the fitted dose curve; in most records, active means well fitted inhibition curve with a large enough effect; inconclusive means small, poorly fitted or top-dose-only effect, or another doubt; inactive means no such curve, though single readings can be large or run the other way. Potencies of inconclusive entries are left out as doubtful fits.

experiment: Primary qHTS for delayed death inhibitors of the malarial parasite plastid, 48 hour incubation; conditions: P. falciparum luciferase growth in erythrocytes; series mostly up to 28.7 µM; activity change, negative = inhibition: at the top concentration
In short: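 Parasite viability was followed by luminescence of a genomically integrated firefly luciferase. Cultures held 0.1% parasitemia at 2% hematocrit (final), incubated under 5% CO2 at 37 C.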
On the % scale 0 is the no-effect control and ±100 the full control effect; potency means the concentration at half of the fitted maximal effect; tags describe the fitted curve by direction and shape.

SMILES | activity change, negative = inhibition | Potency
COc1ccccc1CCCNC(=O)C1CCC(=O)N(CCc2ccc(Cl)cc2)C1 (stereo not given) | inactive: -29.9% | 
COC(=O)C1=Nc2ccccc2/C1=C\c1c(O)n(-c2ccc(OC)cc2)c(=O)[nH]c1=O | inactive: 47.4% | 
O=C(/C=C/c1cccc(F)c1)NNC(=O)c1ccncc1 | inactive: 5.18% | 
CN1CCc2c(sc(NC(=O)c3cc4cc([N+](=O)[O-])ccc4s3)c2C(N)=O)C1 |  | inconclusive [inhibitor, full curve, poor fit]
CCc1cccc(C)c1NC(=S)N(CCCN1CCOCC1)Cc1cccnc1 |  | inconclusive [inhibitor, full curve]
COc1ccc2oc(C(=O)Nc3ccc(N4CCOCC4)cc3)c(C)c2c1 |  | inconclusive [inhibitor, partial curve, poor fit]
CC1CCCN(S(=O)(=O)c2ccc(CN3C(=O)c4cccnc4C3=O)cc2)C1 (stereo not given) | inactive: 41.2% | 
CCc1ccc(OCC(=O)N(Cc2ccccc2)C2CCS(=O)(=O)C2)cc1 (stereo not given) | inactive: -17.9% | 
COc1ccc(NC(=O)Cn2c(=O)n(-c3ccc(OC)cc3OC)c(=O)c3c(C)c(C)sc32)cc1 |  | inconclusive [inhibitor, partial curve, poor fit]
Cc1oc(-c2ccccc2)nc1CC(=O)O | inactive: 7.35% | 
COC(=O)c1ccccc1NC(=S)NC(=O)c1ccc(C)cc1 | inactive: 27.3% | 
CCOc1cc2c(cc1OCC)-n1cccc1C(c1cc(C)c(OC)cc1C)NC2 (stereo not given) |  | active: 6.57 µM
N#CCCn1cc(/C=C2\NC(=S)N(c3ccccc3)C2=O)c(-c2ccc(-c3ccccc3)cc2)n1 |  | inconclusive [inhibitor, single point]
COCCn1c(CN2CCc3ccccc3C2)nc2c1c(=O)n(C)c(=O)n2C | inactive: -13.6% | 
CCC(=O)Nc1ccc(C2=Nn3c(nnc3C(C)C)SC2)cc1 |  | inconclusive [inhibitor, full curve, poor fit]
COc1ccc(NC(=O)COc2coc(CN3c4ccccc4CC3C)cc2=O)cc1 (stereo not given) |  | inconclusive [inhibitor, partial curve]
CCN1CCc2nc(NC(=O)c3ccccc3)sc2C1 | inactive: 157% | 
COc1ccc(CCNC(=O)COC(=O)c2cc(S(=O)(=O)N3CCCC3)ccc2O)cc1 |  | inconclusive [inhibitor, single point]
CCN(CC)C(=O)COc1ccc(S(=O)(=O)N2CCOCC2)cc1 |  | inconclusive [inhibitor, partial curve, poor fit]
CC(NC(=O)c1ccc2c(c1)OCO2)C(c1cccs1)N1CCN(c2ccccc2)CC1 (stereo not given) | inactive: 141% | 
Cc1ccc(CNC(=O)c2nnc(CS(=O)(=O)c3ccccc3)o2)cc1 |  | inconclusive [inhibitor, single point]
CCCN(Cc1nnc(-c2ccccc2Cl)o1)C(=O)c1cc(S(=O)(=O)N2CCOCC2)ccc1F |  | inconclusive [inhibitor, single point]
CCOC(=O)C1CCN(C(=O)Nc2c(-c3ccccc3)noc2C)CC1 | inactive: 0.557% | 
COC(=O)CCc1c(C)[nH]c(=S)[nH]c1=O | inactive: 7.16% | 
CCN1CCN(C(=S)Nc2ccsc2C(=O)OC)CC1 | inactive: 10.5% | 

SMILES | activity change, negative = inhibition | Potency
CC[n+]1c(SC)ccc2cc(OC)ccc21 |  | active: 0.738 µM
COc1cc(OC)c(OC)cc1CNC(=O)c1cc(S(=O)(=O)N2CCOCC2)ccc1F |  | inconclusive [inhibitor, single point]
O=C1SC(Cc2ccccc2)C(=O)N1c1ccccc1 (stereo not given) | inactive: 18.7% | 
CCN(CC)CCN(Cc1cc2cc(C)cc(C)c2[nH]c1=O)C(=S)NCc1ccco1 |  | inconclusive [inhibitor, full curve]
CCC(C)[C@H](NC(=O)Nc1ccc(C)cc1C)C(=O)O (stereo not given in full) | inactive: 9.48% | 
O=C(O)c1ccc(OS(=O)(=O)c2ccc(Cl)s2)cc1 | inactive: 30.1% | 
CC(C)c1ccc(S(=O)(=O)N2CCN(C(=O)c3cc([N+](=O)[O-])ccc3N3CCOCC3)CC2)cc1 |  | inconclusive [inhibitor, single point]
Cn1cccc1CC(=O)N/N=C/c1cc([N+](=O)[O-])ccc1Cl |  | inconclusive [inhibitor, single point]
CN(C(=O)COC(=O)/C=C/c1ccc(C(F)(F)F)cc1)c1c(N)n(Cc2ccccc2)c(=O)[nH]c1=O |  | inconclusive [inhibitor, single point]
Cc1occc1C(=O)Nc1cccc([N+](=O)[O-])c1 | inactive: 65.1% | 
NC(=O)NC(=O)CSc1nc2sc(-c3ccccc3)cc2c(=O)n1-c1ccccc1 | inactive: 16.8% | 
COc1ccc(Nc2nc(OC)nc(N3CCOCC3)n2)cc1 | inactive: -4.48% | 
O=C(Nc1cccnc1)c1cccc(S(=O)(=O)Nc2cccc(Cl)c2)c1 |  | inconclusive [inhibitor, single point]
CCC(=O)c1c[nH]c(C(=O)NCCCN2CCOCC2)c1 | inactive: 1.26% | 
Cc1cc(NC(=O)c2cccs2)no1 | inactive: 88.1% | 
COC(=O)c1ccccc1NC(=O)C1CCCN(c2nnc(-n3cccc3)s2)C1 (stereo not given) |  | inconclusive [inhibitor, single point]
S=C(NCCC(c1ccccc1)c1ccccc1)Nc1ccccc1Cl |  | inconclusive [inhibitor, single point]
O=c1[nH]c2ccc(NC(=S)NCc3ccccc3)cc2[nH]1 | inactive: 14.4% | 
O=C(Nc1cnc2sccn2c1=O)c1ccccc1Cl | inactive: 131% | 
CN(c1nc2c(c(=O)n(C)c(=O)n2C)n1CC(=O)c1ccccc1)C1CCCCC1 |  | inconclusive [inhibitor, single point]
Cc1nn(Cc2ccccc2)c(Cl)c1C(=O)OC(C)C(=O)Nc1ccc(F)cc1Cl (stereo not given) |  | inconclusive [inhibitor, single point]
COc1ccc(C2=NCC(=S)Nc3ccc(Cl)cc32)cc1Cl |  | inconclusive [inhibitor, single point]
CC(=O)N/N=C(\C)C1COc2ccccc2O1 (stereo not given) | inactive: 9.28% | 
Cc1[nH]c2ccccc2c1C(=O)Cn1c(=O)oc2ccccc21 | inactive: -6.13% | 
NC1=NC[C@H](Cc2ccccc2)N1CCCCC1CCCCC1 |  | inconclusive [inhibitor, single point]
